Measurements published in PubChem BioAssay AID1918994 (Molecular Pharmacology Branch, DTP, NCI, 2023).
Some entries of the source have several records that differ or are many. This is not the full list of results. An entry can have further records. The records of an entry are repeated measurements across runs, samples, wells, individuals or studies. Brackets with × stand for listed records that agree. Marks such as [2022-09] give the month of the run.

Tested on: 292921-168-R-J2-PDC complex spheroid growth
Assay: Anticancer human tumor 292921-168-R-J2-PDC patient-derived pancreatic carcinoma cell line growth inhibition [AhR]
Conditions: for IC50: compound alone; for viability, T/C: compound alone 3.16 µM, stronger effect = lower value
Source text: Multicellular complex tumor spheroid response to aryl hydrocarbon receptor antagonists in combination with a variety of drugs and investigational agents in selected tumor cell lines
The current study was undertaken to assess response to aryl hydrocarbon receptor antagonists in combination with standard-of-care drugs and investigational agents in solid tumor complex spheroid models. Complex spheroids include a stromal component modeled by human endothelial cells (HUVEC) and fibroblasts modeled by human mesenchymal stem cells (MSCs). The concentration ranges selected for each drug and investigational agent were based upon clinically achievable concentrations if the clinical Cmax of the agent was known.
Compounds. The drugs and investigational agents: BAY 2416964 (NSC825713), GNF351 (NSC835774), CH-223191 (NSC835775), CPI-455 (NSC825282), aza-TdCyd (NSC777586), decitabine (NSC127716), belinostat (NSC758774), entinostat (NSC756642), pevonedistat (NSC761192), tazemetostat (NSC777109), talazoparib (NSC765396), olaparib (NSC753686), selinexor (NSC780203), nedisertib (M3814, NSC802822), bortezomib (NSC756655), venetoclax (NSC766270), doxorubicin (NSC123127), elimusertib (BAY189344, NSC800525), ceralasertib (AZD6738, NSC777638), TAK-243 (NSC785004), alisertib (NSC759677), etoposide (NSC141540), topotecan (NSC609699), eribulin (NSC707389), gemcitabine (NSC613327), carboplatin (NSC241240), cisplatin (NSC119875), and SN-38 (NSC673596) were obtained from the National Cancer Institute (NCI) Developmental Therapeutics Program Chemical Repository (32). The FDA-approved anticancer drug set is available from the Developmental Therapeutics Program at https://dtp.cancer.gov/organization/dscb/obtaining/available plates.htm. […] The stock solutions were prepared in dimethyl sulfoxide (DMSO, Sigma-Aldrich, St. Louis, MO, cat. D2650), except for the platinum compounds which were prepared in saline (Quality Biological, Gaithersburg, MD, cat. 114-055-101), at 800-fold the tested concentration and stored at -70 degrees C prior to their use. All drugs and investigational agents were tested over a range starting from a high concentration at or near the clinical Cmax and decreasing in half-log increments. If the clinical Cmax for an agent had not been determined, the highest concentration tested was 10 microM (Table 1).
Cell Culture. All cells were maintained in an incubator at 37 degrees C and 5% CO2 with 95% humidity. The PDC lines were cultured according to standard operating procedures established by the NCI PDMR (https://pdmr.cancer.gov). […]
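Also: spheroids exposed to compounds for seven days after three days of growth.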

| SMILES | IC50 (combination with AhR antagonist, run of 06/06/2022) | viability, T/C | IC50 |
| --- | --- | --- | --- |
| Cc1cncc(-c2nc(NCCc3c[nH]c4ccccc34)c3ncn(C(C)C)c3n2)c1 | 7.99 µM, 9.44 µM, 6.82 µM, 8.27 µM, 6.96 µM, 8.62 µM, 7.14 µM, 6.53 µM, 7.08 µM, 6.83 µM, 9.18 µM, 9.06 µM, > 10 µM, 7.68 µM, 6.97 µM, 3.07 µM, 8.93 µM, 9.04 µM, 6.54 µM, 8.37 µM, 6.4 µM | 68.3, 75.6, 66.9, 65.1, 66.4, 64.4, 65.2, 62.9, 70.7, 61.5, 63.4 (2×), 69.3, 70.1 (2×), 73.3, 64.1, 48.5, 60.5, 72.9% |  |
| Cc1ccccc1N=Nc1ccc(NC(=O)c2ccnn2C)c(C)c1 |  | 71.6, 87, 69.9, 73.7 (2×), 70.4, 69.3, 62.5, 78.8, 61.7, 67.4, 68.9, 80.4, 69.1, 74, 76, 74.1, 80.7, 72.7, 74.5% |  |
| COc1cc(Nc2ncc3c(n2)-c2ccc(Cl)cc2C(c2c(F)cccc2OC)=NC3)ccc1C(=O)O |  |  | 58.2 nM [2022-05] and 3.6 µM, 31.6 nM [2022-06] |
